Experimental data published in the RNAGym collection of RNA variant scans (doi:10.7554/elife.90254).
The source gives no read counts; variants with many changes may rest on few reads.

B1: LINE1-mini (parent)
chain: GGCAGAGCUCAACACAGCGUGGCAAAGUGGCUGUGGCUAGACUGCC

Variants of: B1
Assay: self-cleavage, relative activity (ratio to wild type); higher = more cleavage; in vitro, sequencing; the parent is a self-cleaving ribozyme

Q: For GGCAUAGCUCAACACCGCGUAGCAAAGUGGCUGUGGCUAGCCUGCC [G5U A16C G21A A41C], which self-cleavage is on record?
A: 0

Q: With GGCAGAGCUCAACACAGCUUGGCUAAGUGGCUGUUGCAAGACUGCC [G19U A24U G35U U38A] as the variant, how does the self-cleavage read?
A: 0.27

Q: With AGCAUAGCUCAACACAGCGUGGCAAAGGGAAUGUGGCUAGACUGCC [G1A G5U U28G G30A C31A] as the variant, how does the self-cleavage read?
A: 0.06

Q: For GGCAGAGCUCAACACAGCGUGGCAAAGUGGCUUGGGCUAAACUGCC [G33U U34G G40A], which self-cleavage is on record?
A: 0.08

Q: For GGGAGAGGUCAAUAAAGCGUGGCAAAGUGGCUGUGGCUAGACUGCC [C3G C8G C13U C15A], which self-cleavage is on record?
A: 0.09

Q: For GGCCGAGCUCAACACAUUGUGGCAAAGUGGCUGUGGCUAGACUGCC [A4C G17U C18U], which self-cleavage is on record?
A: 0.05

Q: Which self-cleavage does the source give for GGCAGAGCUCAACACAGCGUGGCAAAUUGACUGUAGCUAGACUGCC [G27U G30A G35A] here?
A: 0.03

Q: Which self-cleavage does the source give for GCCAGAGGUCAACACAGCGUGGCAAAGUGGCUGUGGCUAGUCUGUC [G2C C8G A41U C45U] here?
A: 0.14

Q: With GGCAUAGCUCAACACAGCGUUGCUAAGUGGCUGUGGCUAGACUGCC [G5U G21U A24U] as the variant, how does the self-cleavage read?
A: 0.03

Q: With GGCAGAGCUCAACACAGCGUGGUAAAAUGGUUGUGGCUAGACUGCC [C23U G27A C31U] as the variant, how does the self-cleavage read?
A: 0.34

Q: With GGCAGAGCUAAUCACUGCGUGGCAAAGUGGCUGUAGCUAGACUGCC [C10A A12U A16U G35A] as the variant, how does the self-cleavage read?
A: 0.02

Q: For GGCAAAGCUCAACACAGCGUGGCAAAGUAGCUGUUGCUAGACUGCC [G5A G29A G35U], which self-cleavage is on record?
A: 0.04

Q: For AGCAUAGCUCAACACAGCGUGGCAAAGUGGCUGUGGCUACACUGCC [G1A G5U G40C], which self-cleavage is on record?
A: 0.01

Q: With GGCAGAGCUCAACUCAGCGUGGCAAAGUGGCUGUGGACAGACUGCC [A14U C37A U38C] as the variant, how does the self-cleavage read?
A: 0.18

Q: For GGCAGAGCUCAACACAGCGUUGCAAAAUGGCUGUGGCUGGACUGUC [G21U G27A A39G C45U], which self-cleavage is on record?
A: 0.06

Q: With GGAAGAGCUCAACACCGCGUGGCAUAGGGGCUGUGGCUAGACUGCC [C3A A16C A25U U28G] as the variant, how does the self-cleavage read?
A: 0.02

Q: For GGCAGAGAUCAACACAGUGGGGCAAAGUGGCUGUGGCUAGACUUCC [C8A C18U U20G G44U], which self-cleavage is on record?
A: 0.08

Q: Which self-cleavage does the source give for GACAGAGCUCAGCACAUCGUGGCAAAGGGGCUGUGGCAAGACUGCC [G2A A12G G17U U28G U38A] here?
A: 0.1

Q: Which self-cleavage does the source give for UGCAGAGCUCGACACAGCGCGGCAAAGUGGCUGUGGCUAGACAGCC [G1U A11G U20C U43A] here?
A: 0.01

Q: With UGCAGAGGUCAACACAGCGUCGCAAAGUGGCUAUGGCUAGACUGCC [G1U C8G G21C G33A] as the variant, how does the self-cleavage read?
A: 0.02

Q: Which self-cleavage does the source give for GGCAGAGCUCAACACAGCGUGGCAAAGUGGCUGUGGGCACACUGCC [C37G U38C G40C] here?
A: 0.14

Q: Which self-cleavage does the source give for GGCAGAGCUCAUCACAGCCUGGCAAAGAGGCUGUGGCUAGACUGCC [A12U G19C U28A] here?
A: 0.05

Q: With GACAGAGGUCAACACAGCGUGGCAGAGUGGCUGUGGCUAGACUGCU [G2A C8G A25G C46U] as the variant, how does the self-cleavage read?
A: 0.21

Q: For GGCAUGGCUAAACACAGCGUUGCAAAGUGACUGUCGCUAGACUGCU [G5U A6G C10A G21U G30A G35C C46U], which self-cleavage is on record?
A: 0.02

Q: With GGCAGAGCUAAAAACAGCGUGGCAAAGUGGCUGUUGCUAGACUGCC [C10A C13A G35U] as the variant, how does the self-cleavage read?
A: 2.06

Q: For GGCAGAGCUCACAACAGCGUGGUAUAGUGGCUGUGGCUAGACUGCC [A12C C13A C23U A25U], which self-cleavage is on record?
A: 0.02

Q: With GGCAGAGCGCAACACAGCGUGGCAAAGUGGCUGUGGAAAGACCGCC [U9G C37A U38A U43C] as the variant, how does the self-cleavage read?
A: 0.08

Q: With UGCAGAGCUCAACACAGCGUGUCAAGGUGGCUGUGGCUAGACUGCC [G1U G22U A26G] as the variant, how does the self-cleavage read?
A: 0.23

Q: With GGCAGAGCUCAGCACAUUGUGGGGAAGUGGCUGUGCCUAGACUGCC [A12G G17U C18U C23G A24G G36C] as the variant, how does the self-cleavage read?
A: 0.02

Q: For GGCAGACCCCAACACAGCGUGGCAAAGUGUCUGUGGCAAGACUGGC [G7C U9C G30U U38A C45G], which self-cleavage is on record?
A: 0.02

Q: With GGCAGAGCUCAGCACAGCGUAGCUAAGUGGCUGUGGCUAUACUGCC [A12G G21A A24U G40U] as the variant, how does the self-cleavage read?
A: 0.02

Q: With GGCGGAGCUCAACACAGCGAAGCAAAGGGGCUGUGGCUAAACUGCC [A4G U20A G21A U28G G40A] as the variant, how does the self-cleavage read?
A: 0.11

Q: Which self-cleavage does the source give for GGAAGAGCUCAAGACAGCGUGGAAAAGUAGCUGUUGCUAGACUACC [C3A C13G C23A G29A G35U G44A] here?
A: 0.4

Q: Which self-cleavage does the source give for GGCAGAGCUCAACACACCGUGGCAAAGUGUCUGUGGCCAGACUGCC [G17C G30U U38C] here?
A: 0.07

Q: Which self-cleavage does the source give for GGCAGAGUUAAACACAGCGUGGCGAAGUGGCUGUGGGUAGACUGCC [C8U C10A A24G C37G] here?
A: 0.08

Q: For GGCAGACCUCAACACAGCGUGGUAAAGUGGCUGUGGCUAGACCGCC [G7C C23U U43C], which self-cleavage is on record?
A: 0.07

Q: Which self-cleavage does the source give for GGCAGAACUUAACACAGCGUGGCAAUGUGGCCGUGGCGAGACUGCC [G7A C10U A26U U32C U38G] here?
A: 0

Q: With GGGAGAGCUCAACACAGCGUGGCAAAUUGGCUGUUGCUAGCCUGCC [C3G G27U G35U A41C] as the variant, how does the self-cleavage read?
A: 0.11

Q: For GGCAAAGUUCAACACAGCGUGGCAAACUGGCUGUGGCUAUACUGCC [G5A C8U G27C G40U], which self-cleavage is on record?
A: 0.09

Q: Which self-cleavage does the source give for GGCAGACCCUAACACAACGUGGCAAAUUGGCUGUGGCUAUACUGCC [G7C U9C C10U G17A G27U G40U] here?
A: 0.02

Q: With GACAGAGCUAAACACAGCUUGGCAAAGUGGAUGUUGCUAGACUGCC [G2A C10A G19U C31A G35U] as the variant, how does the self-cleavage read?
A: 0.02

Q: For GGCAGAGAUCAACACAGCGUGGCAAAGUGGCUGCAGCAAGACUGCC [C8A U34C G35A U38A], which self-cleavage is on record?
A: 0.09

Q: Which self-cleavage does the source give for GGCAUAGCUCAACACAGCGUAGCAAAGUCGCUUUCACUAGACUGCC [G5U G21A G29C G33U G35C G36A] here?
A: 0.04

Q: With GGAACAGCUCAACACAGCGUGGUAAAGUGACUGUGGCUAGACUGCC [C3A G5C C23U G30A] as the variant, how does the self-cleavage read?
A: 0.23

Q: With GGCCGAGCUCAACACAGCGUGGCUAAUGGGCUGUGGCUAGACUUCC [A4C A24U G27U U28G G44U] as the variant, how does the self-cleavage read?
A: 0.02

Q: Which self-cleavage does the source give for GGCAGAGCUCAACACAGCAUGGCAUAGUGGCUGUGGCUAGACUUCC [G19A A25U G44U] here?
A: 0.32

Q: With GUCAGUGCUCAACACAGCGUGGCAAAGUUGCUGUGGAUAGACUGCC [G2U A6U G29U C37A] as the variant, how does the self-cleavage read?
A: 0.02

Q: Which self-cleavage does the source give for GGCAGAGCUCUAAACAGCGUGGCAAAGUGGCUGUGGCUAGCCUGCC [A11U C13A A41C] here?
A: 0.08

Q: For GGCAGGGCUCGACACAGCGUGGCUAAGUGGCUGUGGCUAGACUGCC [A6G A11G A24U], which self-cleavage is on record?
A: 0.04

Q: With GGCAGAGCUCAACACAGCCUGGCACAUUGGCUGUGGCAGGACUGCC [G19C A25C G27U U38A A39G] as the variant, how does the self-cleavage read?
A: 0.01

Q: With GGCAGAGGUCAAGAGAGCGUGGCAAAGUGGCUGUGGCUAGACUGCC [C8G C13G C15G] as the variant, how does the self-cleavage read?
A: 0.06

Q: With GGCAGAGCUCAACAUAGCGUGGCAAAGUGGAUCUGACUAGACUGCC [C15U C31A G33C G36A] as the variant, how does the self-cleavage read?
A: 0.05

Q: Which self-cleavage does the source give for GGCAGAGCUCAACACAGCGUGGCAAUGUGGCUUUGGCUAGACUGUC [A26U G33U C45U] here?
A: 0.25

Q: With GGCACGGCUCUACACAGCGUGGCAAAGUGGCUAUGGCUAGACUGCC [G5C A6G A11U G33A] as the variant, how does the self-cleavage read?
A: 0.03

Q: With GGCAGAGCUCAACACAGCGUGCCAAAGUGGCUGUCGCUAGACUCCC [G22C G35C G44C] as the variant, how does the self-cleavage read?
A: 0.03

Q: Which self-cleavage does the source give for GGCAGAGCUCAAGACAGCGUUGCAAAGUAGCUGUGGCUAGACUGCC [C13G G21U G29A] here?
A: 0.35
